The text below walks through data of PubChem BioAssay (NCI).

Several values for one entry are separate records, joined by “and”; a condition that tells them apart may be missing. Equal entries are not always repeated.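 Briefly, cells in 96-well plates were exposed to five compound concentrations for 48 h, and endpoints were estimated by linear interpolation. GI50 marks 50% less growth. TGI: total growth inhibition.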

The experiment relates to NCI-H322M lung. Put plainly: DTP human tumour cell line panel, 48 h.
With `Fc1cccc(C2ON=C(c3ccccc3)N2C23CC4CC(CC(C4)C2)C3)c1` (stereo not drawn), the TGI – broadly, the concentration giving total growth inhibition – was greater than 10 µM.

`O=c1[nH]c(NCCCCCO)nc2nc[nH]c12` had a TGI greater than 100 µM.

`Cc1c(C(=O)/C=C/c2ccc3c(c2)OCO3)[n+](=O)c2ccccc2n1[O-]` returned a TGI greater than 100 µM.

Turning to `Nc1nc2c([nH]1)c1[nH]c3ccccc3c1c1[nH]c3ccccc3c21`, the GI50 – broadly, the concentration that inhibits growth by half – was 10 µM and the TGI amounted to 21.6 µM.

Regarding `CCOC(=O)NC(Nc1ccc(C(=O)O)cc1)(C(F)(F)F)C(F)(F)F`, the TGI is greater than 100 µM.

For `Nc1nc2c(ncn2C2OC(CO)C(O)C2O)c(=O)[nH]1` (stereo not drawn), the GI50 was greater than 100 µM; the TGI is > 100 µM and 235 µM.

In the case of `COc1cc2c(cc1OC)C(C1CC1)ON(C)CC2` (stereo not drawn), the TGI was greater than 100 µM.

Take `COc1cc(C2C3=C(NC(=O)C2C#N)c2ccc4ccccc4c2OCC3)cc(OC)c1OC` (stereo not drawn): the TGI is greater than 100 µM.

As for `COc1ccc2cc1Oc1ccc(cc1)CC1c3c(cc(OC)c4c3Oc3cc5c(cc3O4)CCNC5C2)CCN1C` (stereo not drawn), the GI50 is 1.54 µM; the TGI was 3.73 µM and 2.88 µM.

With `CC(=O)CCN1CC2CN=NC2(C#N)C1` (stereo not drawn), the TGI is greater than 100 µM.

Molecule `CCOC(=O)NCC(=O)NCC(=O)NCC(N)=O` registered a TGI greater than 100 µM.

For the molecule `O=C(O)c1cc2ccc(Cl)cc2c(O)c1C1=CCCCC1`, the TGI is greater than 100 µM.

The molecule `O=C(CC/C(CC(=O)c1ccc(Cl)cc1)=N\O)Nc1cccc(Cl)c1` showed a TGI greater than 100 µM.

With `N#Cc1cc2c(n(C3OC(CO)C(O)C(O)C3O)c1=S)CCC2` (stereo not drawn), the TGI is greater than 100 µM.

`CCOC(=O)CSc1nc(-c2ccc(Cl)cc2)c(C#N)c(=O)[nH]1`: the TGI is greater than 100 µM.

In turn, `CC1=NN(c2cc(Cl)c(S(=O)(=O)O)cc2Cl)C2(C1)C(Cl)C(=O)N2c1nc2ccccc2s1` (stereo not drawn) gave a TGI greater than 100 µM.

`NC(=O)N1N=C2c3ccccc3OC[C@H]2[C@@H]1c1ccccc1` came in with a TGI greater than 100 µM.

In turn, `CC(C)(C)c1cc(C(C)(C)C)c2sc(=O)oc2c1O` displayed a TGI of 29.8 µM.

In turn, `O=C(CCCCCCCCC(=O)N1C(=O)CC(=O)N(c2ccc(Cl)cc2)C1=S)N1C(=O)CC(=O)N(c2ccc(Cl)cc2)C1=S` came in with a TGI greater than 100 µM.

The molecule `CC[P+](c1ccccc1)(N(C)C)N(C)C` came in with a TGI greater than 100 µM.

In turn, `CCOC(=O)CC1C(C(=O)OCC)=Cn2c([nH]c3cccc4cccc2c43)=C1C(=O)OCC` (stereo not drawn) had a TGI greater than 100 µM.

As to `COC(=O)C1C(=O)NC2(C)CC1c1ccccc1O2` (stereo not drawn), the TGI was greater than 100 µM.

Take `CC(=O)O[C@H]1C(=O)[C@@]2(C)C([C@H](OC(=O)c3ccccc3)[C@]3(O)C[C@H](OC(=O)[C@H](O)[C@@H](NC(=O)c4ccc(Cl)cc4)c4ccccc4)C(C)=C1C3(C)C)C1(OC(C)=O)CO[C@@H]1C[C@@H]2O` (stereo partly drawn): the concentration for 50% growth inhibition (GI50) was 0.0109 µM; the TGI is 25 µM and 17.5 µM.

Molecule `CCOC(=O)c1cnc2c(ccc3ncccc32)c1OCC` had a total growth inhibition concentration (TGI) greater than 100 µM.

In the case of `Clc1ccc(/C=C/c2csnn2)cc1`, the TGI was greater than 100 µM.

`COc1ccc(S(=O)(=O)NNS(C)(=O)=O)cc1OC`: the concentration for total growth inhibition (TGI) was greater than 100 µM.

Take `CNC(=O)N(CCCCC(NC(C)=O)C(=O)NCc1ccccc1)Cc1ccccc1` (stereo not drawn): the TGI is greater than 100 µM.

In turn, `CN(C)c1ccc(/C=C2\N=C(c3ccccc3)N(c3nc4ccc(Sc5ccccc5)cc4[nH]3)C2=O)cc1` gave a TGI greater than 100 µM.

With `Cc1cc(=O)[nH]c2c1C(=O)c1c(C)cc(=O)n(C)c1C2=O`, the TGI worked out at 0.0294 µM.

With `CCCC/C=C1/CCC(CN(C)C)C1=O` (stereo not drawn), the TGI is 19.1 µM.

In the case of `CN(C)CN(C)c1nc(N(C)C)nc(N(C)C)n1`, the TGI was greater than 100 µM.

With `CC(C)NC(=O)OCCN=C1c2ccccc2C(Br)C(Br)c2ccccc21` (stereo not drawn), the TGI stood at 72.3 µM.

In the case of `Cc1ncc([N+](=O)[O-])n1CCOc1ccc(C(=O)/C=C/c2ccc(C(F)(F)F)cc2)cc1`, the GI50 was 2.26 µM and the TGI stood at 6.41 µM.

Regarding `N#Cc1nc(-c2ccsc2)oc1N`, the TGI was greater than 100 µM.

`NC(=O)C1C(=O)Oc2cccnc21` (stereo not drawn) returned a TGI greater than 100 µM.

Molecule `COc1ccccc1-c1cc(=O)c2cccnc2[nH]1` had a TGI greater than 100 µM.

Turning to `CN(Cc1ccccc1)C(=S)S`, the TGI is greater than 100 µM.

On to `O=C(NCCOC(=O)CCCCCCCCC(=O)OCCNC(=O)NC(=O)c1cn(Cc2ccccc2)c(=O)[nH]c1=O)NC(=O)c1cn(Cc2ccccc2)c(=O)[nH]c1=O`, for which the TGI is greater than 100 µM.

Consider `FC(F)(Sc1ncccn1)c1nc2ccccc2o1`, for which the TGI is greater than 100 µM.

Consider `O=C(CN1CCCC1)Nc1ccc2c(c1)C1Oc3ccccc3CC1CO2` (stereo not drawn), for which the TGI is greater than 100 µM.

For `COc1ccc(/C=C2\N=C3N(Cc4ccccc4)C=C(N)N3C2=O)cc1`, the TGI is greater than 100 µM.

Turning to `C[N+](C)([O-])C12CC3CC(CC(C3)C1)C2`, the TGI was greater than 100 µM.

For the molecule `CC(CSc1nc2c(c(=N)n1-c1ccccc1)c(=S)n(-c1ccccc1)c(=S)n2-c1ccccc1)CN(C)C` (stereo not drawn), the TGI turned out to be 4.19 µM.

Molecule `CC1CC(C)(C)CC(OCCN2CCCCC2)(c2ccccc2)C1` (stereo not drawn) returned a TGI of 22.6 µM. This TGI is about 5.4-fold higher than that of the molecule before.

Regarding `OCCN1CCCN(CCCN2c3ccccc3Sc3ccc(C(F)(F)F)cc32)CC1`, the GI50 was 6.02 µM and the TGI was 20.1 µM.

`c1csc(-c2cc(-c3ccsc3)cs2)c1` registered a concentration for total growth inhibition (TGI) greater than 100 µM.

`Cc1cc(C)c(C2=NO[C@@H]3[C@H]2C(=O)C=C2N(Cc4ccccc4)CCO[C@@]23O)c(C)c1` had a TGI greater than 100 µM.
